Data: the RNAGym collection of RNA variant scans (doi:10.1073/pnas.2313332121)
Variants at the background level are over-represented here.

B1: TPR 5TU (parent)
chain: GGAUCUUCUCGAUCUAACAAAAAAGACAAAUCUGCCACAAAGCUUGAGAGCAUCUUCGGAUGCAGAGGCGGCAGCCUUCGGUGGCGCGAUAGCGCCAACGUUCUCAACUAUGACACGCAAAACGCGUGCUCCGUUGAAUGGAGUUUAUCAUG

Variants of: B1
Assay: polymerase ribozyme fitness, log enrichment relative to wild type (log ratio); higher = more active; in vitro selection for triplet polymerase activity
Procedure, shortened: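 Input and output libraries were sequenced on Illumina after a single in vitro selection round, run in triplicate on PCR-built, transcribed mutant libraries of each subunit of a heterodimeric triplet polymerase ribozyme. Selection annealed libraries to a biotinylated primer, the partner subunit and triplets, incubated them frozen at −7 °C, then gel-excised extended constructs for streptavidin-bead capture and RT-PCR. Genotypes with ≥10 input reads and ≥1 read per output were kept. Fitness is the logarithm, taken in base 2, of genotype enrichment divided by wild-type enrichment, using inverse-variance-weighted replicate averages.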

Variant	polymerase ribozyme fitness (log ratio)
A16G C85A G100U G133C	≤ -4.2
A16U C38G C54U A142C U146G A150G	≤ -4.2
A16U A17C C43U G48C G100A A115C U145C	≤ -4.2
A16U A37U A52C G112U U139A	≤ -4.2
A16G C57G C76A	-1.31
A16C U82A C95G G141A	-3.41
A16U A37C A40U U45A U61A G80A A138U A150C	≤ -4.2
A16U A21U G48U G50A C95G C125G	≤ -4.2
A16G A26U C38A C63U C85G A91U G117A G141C	≤ -4.2
A16G C32A C38G U56A A60C C87A C123U A150C	≤ -4.2
A16U A17U G62A G68U C85G G143C	≤ -4.2
A16G G48A C57A C76U A89C C95A C116G C131A G136C	≤ -4.2
A16U A49C G68A C93U	≤ -4.2
A16U A22G C72U C79U C87A U104G	≤ -4.2
A16G C27G G84U C118G G128U U151A	≤ -4.2
A16U A21G A24G G25U C95U U109G A120U	≤ -4.2
A16U A17C C85G G128A	≤ -4.2
A16G A19G A23U A26C U44A U53A C87G C103A	-4.11
A16U A20G C32A C103A A113U A122C A138G G140U	≤ -4.2
A16G A28C C36A U44A G48C A49C C76G U77C A91U C103G	≤ -4.2
A16G A40G G86C	≤ -4.2

Variant	polymerase ribozyme fitness (log ratio)
A16U C32G G34A C85G U90G A97G U134G G141C	≤ -4.2
A16U C35G G42A U78C G92A U102G	≤ -4.2
A16U A28U A49U G59A G80A A107U	≤ -4.2
A16G C76U C79A G83U G152U	≤ -4.2
A16G A17C A23G A24G A113C	≤ -4.2
A16G A22U C57U G84C C85G C99U C129A G133A G143U	≤ -4.2
A16G G83C A110U U135A G141U	≤ -4.2
A16U A21C G71A C95U U104G C116G	≤ -4.2
A16C U77A G88A G136A	≤ -4.2
A16C G92C C105A A120U	≤ -4.2
A16U A49C C75U A120G G140C	≤ -4.2
A16C G84U G141C U144A	≤ -4.2
A16G C18U A22C A26G A37U C54U G100A A110G	≤ -4.2
A16U A110G A147U	≤ -4.2
A16U A21C G88C C95A C96A C116U G128A	≤ -4.2
A16G U56A	-1.7
A16G A52G C57U A73C C85U C96G	≤ -4.2
A16G A29G C43A C116U	≤ -4.2
A16G C27A G58C C85A C96G C116U G143C U148A	≤ -4.2
A16U A22C A30U U55A C57A C76G G81U G84C	≤ -4.2
A16G G86U A115U U151C	≤ -4.2

Variant	polymerase ribozyme fitness (log ratio)
A16U A106U A107C A138G	≤ -4.2
A16G C87A	≤ -4.2
A16G A40G U45A G50C C79U U82G C93U U102G	≤ -4.2
A16C U31A U104G A142C	-2.77
A16G C32G C75A U78G	≤ -4.2
A16U A17G A26C C69G	≤ -4.2
A16G A29G C43G A52U A91C	≤ -4.2
A16U A20C G46A G58U G70A G100A	≤ -4.2
A16G U56A G59C G88U A142C U145C	≤ -4.2
A16G U134C G136U	≤ -4.2
A16G A30U C87A C103A U148C	≤ -4.2
A16G A19U C93A	-3.75
A16U A52G G86U A89U A115G	≤ -4.2
A16C G83C U146G U148C C149A	≤ -4.2
A16G G42A G50C A52U C57A G70A	≤ -4.2
A16G A28C U53A C85U A89U A110G	≤ -4.2
A16U A24U A47C A52U C96A	≤ -4.2
A16U A22C C51U U55A G74A C99G C114A C131U	≤ -4.2
A16G U55A C116G C118A U151G	≤ -4.2
A16U A30U U55A C69A C79U C108G	≤ -4.2
A16U A41G A47C G58C A122G C125G A137G	≤ -4.2

Variant	polymerase ribozyme fitness (log ratio)
A16U A40C C51A A52U G74A C76G C95U A107G	≤ -4.2
A16U A49C G50A G94A	≤ -4.2
A16G C43U C51U G80C G117A A142C	≤ -4.2
A16U A39U C43U A89G G92C A97G C108G U139G C149A	≤ -4.2
A16U A29U U134A U148A	≤ -4.2
A16U A22U C38U C85U	-2.73
A16U C27G A89G G92U C149G	≤ -4.2
A16G A19C C85U C96A C125U U139A	≤ -4.2
A16U A41U G59A C116G C129U A150G	≤ -4.2
A16G A22G U78C G83C C85A C105A G126A C132A	≤ -4.2
A16G A49G U61A G71A U90C G94A A119G	≤ -4.2
A16G C18U A22U A24G C95G C96U C149A	≤ -4.2
A16U A30G A89U C93A A106U U109A	≤ -4.2
A16G U45G A49C C87U C93A	≤ -4.2
A16G G68C	≤ -4.2
A16G C43A G80C G88U A89G G92U C125G	≤ -4.2
A16G G67C G84U C116G U135C U139G	≤ -4.2
A16G G25U U78G G94C C96A C116G U146G	≤ -4.2
A16G U53A C87U G92U G94U C96A	≤ -4.2
A16G C27G G70C C87U A119U G133C G143A	≤ -4.2
A16G A39U G59U G71A G74A C85G U135C	≤ -4.2
